Results on 58 molecules are retold here after PubChem BioAssay AID463173 (ICCB-Longwood Screening Facility, Harvard Medical School, 2010).

Screen size: about 52,000 compounds; about 4,300 (8.3%) were called active. Cut-off read from the data, not from the text of the source: active = survival mostly below about 52% (no sharp cut-off); inactive = mostly above about 56%. Some of the results follow.

The test system of the test is DeltatarO mutant. The test can be described thus: S. aureus survival, RN4220 and DeltatarO strains – OD600, teichoic acid synthesis inhibitors, primary screen (AID 463173). The settings on record: S. aureus RN4220 wild type/DeltatarO growth, OD600, 18 h, hits give low values, screened at 18.75 µg/mL (by protocol).
Consider `CCc1ccc(NC(=O)C2=CC(c3cccs3)=NS(=O)(=O)N2C)cc1`, for which the survival is inactive: 81%.
Consider `COc1cc(NS(=O)(=O)c2c(C)nc3sc(C)c(C)n3c2=O)cc(OC)c1`, for which the survival is inactive: 71%.
In the case of `COc1ccc(C(=O)NCc2ccc3c(c2)CCN3C(=O)c2ccc(F)cc2)cc1`, the survival is inactive: 83%.
The result for `COc1ccc(C)c2sc(NC(=O)c3ccc(S(=O)(=O)N4CCCC4)cc3)nc12` reads inactive: 101%; that for `COc1ccccc1CNC(=O)COCc1cc(-c2ccc3c(c2)OCO3)on1`, active: 25%; that for `COc1ccc(/C=C(\C#N)c2nc3ccccc3c(=O)[nH]2)cc1OC`, inactive: 86%.
For the molecule `O=C(COc1ccc(F)cc1)OCc1cc(=O)n2nc(-c3cccs3)sc2n1`, the survival is inactive: 72%.
The result for `CC(C)CN(CC(C)C)CC(O)Cn1cc(/C=C/C(=O)c2ccccc2)c2ccccc21` (stereo not drawn) reads active: 38%.
Regarding `COc1cccc(CNS(=O)(=O)c2c(C(=O)N3CCC(C)CC3)c(C)n(C)c2C)c1`, the survival was inactive: 96%.
For `COc1ccc(C(=O)C2CCN(CC(=O)NCc3ccc(F)cc3)CC2)cc1`, the survival is inactive: 83%.
The result for `O=C(NC1CCCCC1)c1ccc2c(c1)N(Cc1ccccc1Cl)C(=O)c1ccccc1S2` reads inactive: 99%; that for `O=c1cc2[nH][nH]c(=S)n2c(=O)[nH]1`, inactive: 61%.
The result for `COc1ccc(CCNC(=O)Cn2cc(S(=O)(=O)Cc3ccc(F)cc3)c3ccccc32)cc1OC` reads inactive: 71%; that for `CCOc1ccccc1NC(=O)C1CCCN1S(=O)(=O)c1ccc2nc(-c3ccccc3)[nH]c2c1` (stereo not drawn), inactive: 50%; that for `CCOc1ccc(C(=O)c2oc3ccccc3c2NC(=O)c2cc(-c3ccc(C)cc3)on2)cc1`, inactive: 95%.
In the case of `O=C(CN1C(=O)CSC1=O)N1CCCCC1`, the survival was inactive: 78%.
On to `Cc1ccc(-c2cc(C(F)(F)F)n3ncc(-c4ccccc4)c3n2)cc1`, for which the survival is inactive: 57%.
The value for `S=c1sc2ccccc2n1CN1CCOCC1` was inactive: 78%; that for `Cn1nnnc1SCCCNCc1cccc(OCc2ccccc2)c1` was inactive: 85%.
The value for `O=CN1CCN(C(=O)c2ccc(F)cc2)CC1` was inactive: 78%; that for `Cc1c(C(=O)OCc2ccccc2)[nH]c2c1C(=O)CC(c1ccc(Cl)cc1)C2` (stereo not drawn) was inactive: 98%.
The result for `O=C(NCc1ccc(Cl)cc1)NC1COc2ccccc2C1` (stereo not drawn) reads inactive: 92%.
For `CCOc1ccc(S(=O)(=O)Nc2cccc(-c3ccc(N4CCC(C)CC4)nn3)c2)cc1`, the survival was inactive: 86%.
The value for `O=C(NCc1ccco1)c1ccc(Cn2c(SCc3ccccc3F)nc3cccnc32)cc1` was inactive: 102%.
On to `CCOc1cc(S(=O)(=O)N(C)C2CCCCC2)c(OCC)cc1-n1cnnn1`, for which the survival is inactive: 99%.
The value for `O=C(CSc1ncccc1C(=O)Oc1ccccc1Cl)Nc1ccccc1Cl` was inactive: 89%; that for `CN(C)c1ccc(CNC(=O)C2COc3ccccc3C2)cc1` (stereo not drawn) was active: 32%.
As for `CN1C(=O)c2ccccc2Sc2ccc(NC(=O)c3ccc(C(F)(F)F)cc3)cc21`, the survival is inactive: 96%.
The result for `N#Cc1ccccc1NS(=O)(=O)c1ccc(N2CCCCS2(=O)=O)cc1` reads inactive: 95%; that for `CCCc1nn2c(=O)cc(COC(=O)c3ccc(NC(=O)COc4ccccc4)cc3)nc2s1`, inactive: 92%; that for `CN1CCN(CC(=O)N(c2ccccc2)c2ccc(O)cc2)CC1`, inactive: 93%.
In the case of `O=C1NCCN1C(=O)NC1CCCCC1`, the survival is inactive: 81%.
As to `COc1ccc(CNC(=O)CCc2c(C)c3cc4c(C)coc4c(C)c3oc2=O)cc1OC`, the survival was inactive: 57%.
For the molecule `Cc1ccc(S(=O)(=O)CC(=O)N2CCN(c3nc4c(F)cccc4s3)CC2)cc1`, the survival is active: -5%.
With `COc1cccc(CN2c3ccccc3-c3nc(SCC(=O)Nc4ccccc4Cl)ncc3S2(=O)=O)c1`, the survival is inactive: 60%.
The value for `COc1ccc(Nc2cc(C(=O)NCCCN3CCN(c4ccccc4F)CC3)c3ccccc3n2)c(OC)c1` was active: 48%.
With `Cc1ccc(-c2ccc(=O)n(CCC(=O)NCCc3ccccc3)n2)cc1`, the survival was inactive: 83%.
Turning to `CCN(CC)CCNC(=O)c1cc2c(=O)n(C)c3cc(Cl)ccc3c2s1`, the survival is inactive: 89%.
On to `CCOC(=O)c1[nH]c(C)c(CCC(=O)NCc2ccc(CC)cc2)c1C`, for which the survival is inactive: 62%.
For the molecule `O=C1CSC2(C(=O)N(Cc3cccc(F)c3)c3ccccc32)N1c1cccc(C(F)(F)F)c1` (stereo not drawn), the survival was inactive: 75%.
In the case of `CC(C)COc1ccc(C(=O)N2CCN(CCc3ccncc3)CC2)cc1`, the survival is inactive: 52%.
In the case of `COc1ccc(N(C)C(=O)c2cn(C)c(=O)c3cc(OC)c(OC)cc23)cc1`, the survival is inactive: 177%.
Regarding `Cc1ccc(Cn2c(CO)cnc2SCC(=O)Nc2ccc(C)c(Cl)c2)cc1`, the survival is active: -5%.
As to `COc1ccc(NC(=O)c2ccc3nc(C(C)C)oc3c2)cc1OC`, the survival is inactive: 86%.
On to `CCn1cc(C(=O)N2CCN(c3ccccc3)CC2)c(=O)c2cc(S(=O)(=O)N3CCOCC3)ccc21`, for which the survival was inactive: 86%.
`CCC(Oc1ccc(F)cc1)C(=O)Nc1c(C(=O)c2ccc(C)cc2)oc2ccccc12` (stereo not drawn): the survival is inactive: 89%.
The value for `CCn1c2c(c(=O)n3ncc(C(=O)N4CCN(c5ccc(Cl)cc5)CC4)c13)CN(Cc1ccc(OC)cc1)CC2` was inactive: 101%; that for `c1cnc2c(c1)NC1(CCCCC1)N2` was inactive: 86%; that for `COC(=O)c1cc2oc3ccccc3c2n1Cc1ccc(Cl)cc1` was inactive: 76%.
As for `COc1ccc(C(=O)CSc2nnc(-c3ccoc3C)n2CC(C)C)cc1`, the survival is inactive: 66%.
The result for `COc1ccc(-c2nc3scc(CCNS(=O)(=O)c4ccc(F)cc4C)n3n2)cc1` reads inactive: 84%.
As for `Cc1c(C(=O)Nc2ccccc2)sc2nc(-c3cc4cc(Cl)ccc4oc3=O)[nH]c(=O)c12`, the survival is active: 45%.
In the case of `COc1cccc(N2CCN(C(=O)C3CCN(S(=O)(=O)c4c(C)noc4/C=C/c4ccccc4F)CC3)CC2)c1`, the survival was inactive: 77%.
For `CCC(=O)Nc1ccccc1-c1nc2ccccc2n(CC(=O)Nc2ccccc2OC)c1=O`, the survival was inactive: 61%.
As to `Cc1ccccc1C(=O)Nc1ccc2nc(N3CCCCC3)cc(C)c2c1`, the survival is active: 32%.
In the case of `CCc1ccccc1N/C=C(\C#N)c1nc2ccccc2[nH]1`, the survival was inactive: 95%.
In the case of `CC1CCN(C(=O)C(C)Sc2nnc3c(n2)[nH]c2ccccc23)CC1` (stereo not drawn), the survival was inactive: 102%.
Take `COc1ccc(NC(=O)Cn2cc(S(=O)(=O)c3ccccc3)c(=O)c3cc4c(cc32)OCO4)cc1`: the survival is inactive: 67%.
